This is an account of results in ChEMBL document CHEMBL4888484, “Replenishing the malaria drug discovery pipeline: Screening and hit evaluation of the MMV Hit Generation Library 1 (HGL1) against asexual blood stage Plasmodium falciparum ,using a nano luciferase reporter read-out” (2022).

About 540 (0.36%) of roughly 150,000 compounds showed an effect of 50% or more. The list shows a part of the results.

The assay deals with Plasmodium falciparum. The experiment in a line: Primary screen in NF54 nanoGlo assay, in single point, at 2uM, 72h; a lower Z score goes with more inhibition. It counts as functional, Erythrocyte. Particulars: timepoint 72 hour.
As usually defined, the % Inhibition is the change of the read-out against control, counted positive when it falls. On to `Cc1cc2[nH]c(CN3CCCN(CC4CC4)[C@H](C(C)C)C3)cc(=O)n2n1`, for which the “% Inhibition” value is -11% and the Z score is listed as 1.59.

For the compound `Cc1ccsc1[C@H]1CCN(Cc2ccncc2F)C[C@@H]1O`, the “% Inhibition” value was 0% and the Z score came to 0.05.

For `Cc1cccc(NC(=O)CN2CC(=O)NC[C@H]2c2ccccc2)c1C`, the “% Inhibition” value is -6% and the Z score stood at 0.77.

For `CC(C)Cc1ccc([C@@]2(C)NC(=O)N(Cc3ncnn3C)C2=O)cc1`, the “% Inhibition” value came out at 5% and the Z score was -0.82.

For `O[C@@H](Cn1cnc2ccccc21)Cn1c2ccc(Br)cc2c2cc(Br)ccc21`, the “% Inhibition” value is -9% and the Z score is reported as 1.25.

`O=C1C[C@H](c2nc(-c3ccncc3)no2)CN1c1ccc(Cl)cc1`: the “% Inhibition” value is on record as 7% and the Z score is on record as -1.28.

In the case of `CC(=O)N1CCC(CCC(=O)Nc2n[nH]c3cccc(F)c23)CC1`, the “% Inhibition” value was 2% and the Z score is given as -0.27.

As to `Cc1cc(COc2ccc([C@@H]3CCC(=O)N3)cc2)no1`, the “% Inhibition” value was -5% and the Z score is listed as 0.75.

In the case of `Cc1cnc(C2CCC2)n1CCNS(=O)(=O)Cc1ccccc1`, the “% Inhibition” value is recorded as -16% and the Z score is recorded as 1.84.

Turning to `COc1nn(C)cc1C(=O)Nc1nc(-c2ccccn2)cs1`, the “% Inhibition” value came out at 4% and the Z score is -0.45.

For the compound `CC(C)(C)OC(=O)NCCCNCc1ccccc1OCC1CC1`, the “% Inhibition” value is recorded as -20% and the Z score is reported as 2.03.

Take `COc1ccc(OCC2CCN(C(=O)CC(=O)Nc3cccc(C)c3)CC2)cc1`: the “% Inhibition” value is given as -2% and the Z score was found to be 0.35.

`COCCN(Cc1ccc(C)o1)C(=O)C1CC2CCC1O2` (configuration not stated): the “% Inhibition” value stood at 0% and the Z score worked out at 0.

With `CN(Cc1nc2ccccc2o1)c1cc([C@H]2C[C@@H](O)C2)nc(N)n1`, the “% Inhibition” value was -6% and the Z score amounted to 0.69.

Turning to `O=S(=O)(c1cc(Cl)ccc1Cl)N1CC(C(F)F)C1`, the “% Inhibition” value is on record as -8% and the Z score was 0.93.

Turning to `Cc1noc2ncc(C(=O)NCc3cccnc3OCc3ccccc3)cc12`, the “% Inhibition” value was -5% and the Z score is reported as 0.93.

Turning to `COc1cccc(C)c1C(=O)N1[C@@H]2CC[C@H]1C[C@@H](O)C2`, the “% Inhibition” value amounted to 8% and the Z score is listed as -1.07.

Take `Cc1ccc(CCNC(=O)c2ccc3c(c2)NC(=O)[C@@H]2CCCCN32)cc1`: the “% Inhibition” value was -8% and the Z score came out at 1.14.

As to `CCCCCNC(=O)c1c(C(F)(F)F)nn(C2CCN(C(C)C)CC2)c1C`, the “% Inhibition” value was -3% and the Z score is listed as 0.65.

With `Cc1cc(-n2cc(C3CC3)nn2)n(C)n1`, the “% Inhibition” value stood at 0% and the Z score is -0.06.

Take `Cc1ccc(N(Cc2ccco2)C(=O)[C@H]2CCCN(C(=O)c3ccc(F)cc3)C2)cc1`: the “% Inhibition” value was -3% and the Z score was 0.58.

As to `COc1ccc([C@H]2CCCCN(C(=O)Cn3cncn3)C2)cc1`, the “% Inhibition” value is given as 9% and the Z score is -1.17.

Regarding `CCOc1ccc(N2C[C@@H](c3nnc(N)o3)CC2=O)cc1`, the “% Inhibition” value is recorded as -14% and the Z score was 2.43.

As to `Cc1noc(CN2CC3CCCC(C2)N3C(=O)OC(C)(C)C)n1`, the “% Inhibition” value is -3% and the Z score is 0.31.

Consider `CCN(CC(=O)N1CCc2sccc2C1COc1ccc(C(C)C)cc1)CC(O)c1ccccc1` (configuration not stated), for which the “% Inhibition” value was determined as 2% and the Z score is given as -0.22.

Consider `NC(=O)[C@H]1CCCN1C(=O)CC1(N2Cc3ccccc3C2=O)CCCCC1`, for which the “% Inhibition” value worked out at 8% and the Z score is recorded as -0.98.

On to `CCN1CCN(C(=O)C[C@H](c2ccc(C(C)(C)C)cc2)c2c[nH]c3ccc(OC)cc23)CC1`, for which the “% Inhibition” value is -7% and the Z score was 0.84.

For the compound `CC(NCC1CCCn2ccnc21)c1nc(C2CC2)no1` (configuration not stated), the “% Inhibition” value turned out to be 0% and the Z score came out at 0.05.

Regarding `Cc1cc(F)ccc1C(=O)Nc1ccc(C(=O)NCc2ccncc2)cc1`, the “% Inhibition” value is reported as -12% and the Z score amounted to 2.14.

For `C[C@](O)(CC(=O)N1CC(Nc2ccc(F)cc2)C1)C1CC1`, the “% Inhibition” value is -4% and the Z score amounted to 0.76.

With `c1csc(-c2nc(CN3CCOCc4ccccc43)cs2)c1`, the “% Inhibition” value was -1% and the Z score amounted to 0.11.

As for `Cc1nn(C)c(=O)n1C1CCN(S(=O)(=O)c2cccc3cccnc23)CC1`, the “% Inhibition” value is listed as -11% and the Z score is reported as 1.63.

`Cc1ccc(CNCCn2cnc(C)c2C)o1`: the “% Inhibition” value was -5% and the Z score is on record as 0.84.

As to `COc1ccc2cc1Oc1cccc(c1)CO[C@H]1CN(C(=O)CCc3csc(N)n3)C[C@@H]1NC(=O)CN(C)C2`, the “% Inhibition” value is reported as 4% and the Z score is -0.77.

In the case of `Cc1n[nH]c(CC(=O)N2CCC3(CCC(=O)N(CCc4ccccn4)C3)CC2)n1`, the “% Inhibition” value is listed as 1% and the Z score is on record as -0.17.

For the compound `CCC[C@H]1CN(C(=O)COC)C[C@@H]1Nc1nc(C)c(C)cc1C(N)=O`, the “% Inhibition” value was -5% and the Z score came out at 0.57.

Turning to `Cc1ccc(C)c([C@@H]2CC(c3ccccc3Cl)=NN2C(=O)CN2CCCCC2)c1`, the “% Inhibition” value is recorded as 5% and the Z score was -0.75.

Take `CC(C)n1nccc1-c1ncccc1C(=O)N1C[C@@H]2CC[C@H]1C2`: the “% Inhibition” value was -16% and the Z score stood at 2.02.

Consider `C[C@H](Oc1ccc(-c2ccccc2)cc1)C(=O)Nc1c(-c2ccc(F)cc2)ncn1C`, for which the “% Inhibition” value is given as -9% and the Z score is listed as 0.94.

With `Cc1nnc(CN(C)CCC(=O)NCc2cccs2)o1`, the “% Inhibition” value is -3% and the Z score was found to be 0.42.

For the compound `Cc1cc(C)n(-c2nc(CC(=O)N3CCCCCC3)cs2)n1`, the “% Inhibition” value turned out to be 18% and the Z score is -2.13.
